In general, IC50 refers to the concentration that gives 50% inhibition. High values mean weaker potency, low ones greater potency.

The values below come from article PMC9908617 (Biochimica et Biophysica Acta. General Subjects, 2023).

The structures appear in SMILES notation.

The assay has as its target HCoV-NL63 nsp10-nsp16 complex (Human coronavirus NL63, UniProt P0C6X5). Nature of the assay: biochemical. Conditions: substrate RNA N7mGpppAUUAAA 0.3 μM, 2 μM 3H-SAM.

Chain of HCoV-NL63 nsp10-nsp16 complex (P0C6X5 6430-6729 limits assumed): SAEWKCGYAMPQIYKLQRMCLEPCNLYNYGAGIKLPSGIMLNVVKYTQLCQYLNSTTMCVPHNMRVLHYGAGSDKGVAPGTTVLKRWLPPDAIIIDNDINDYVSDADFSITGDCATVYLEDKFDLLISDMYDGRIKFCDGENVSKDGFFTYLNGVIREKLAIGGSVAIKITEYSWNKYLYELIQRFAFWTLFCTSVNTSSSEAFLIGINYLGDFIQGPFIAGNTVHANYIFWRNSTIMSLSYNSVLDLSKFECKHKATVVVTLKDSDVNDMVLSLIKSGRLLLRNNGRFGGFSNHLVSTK
Chain of HCoV-NL63 nsp10-nsp16 complex (P0C6X5 3909-4043 partner limits assumed): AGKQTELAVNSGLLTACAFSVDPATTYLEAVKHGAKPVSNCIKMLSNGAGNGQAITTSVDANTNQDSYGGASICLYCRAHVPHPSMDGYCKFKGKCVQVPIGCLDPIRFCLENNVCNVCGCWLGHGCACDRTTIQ

Regarding `Nc1ncnc2c1ncn2[C@@H]1O[C@H](CSCC[C@H](N)C(=O)O)[C@@H](O)[C@H]1O` [SAH, S-adenosylhomocysteine], the half-maximal inhibitory concentration (IC50) amounted to 80 ± 10 nM.
